In paper PMC11149917, “Translational and Therapeutic Evaluation of RAS-GTP Inhibition by RMC-6236 in RAS-Driven Cancers” (Cancer Discovery, 2024):
The source gives many values for each of these; only a part stands here.

Tested on: PRISM panel of 845 cancer cell lines
Test: PRISM assay
Assay type: cell-based, human
Experimental: The PRISM cell set comprised 845 cell lines representing more than 45 lineages (see Supplementary Table S1 for cell line information), which largely overlapped with the Cancer Cell Line Encyclopedia; https://portals.broadinstitute.org/ccle). Cell lines were grown in RPMI without phenol red and supplemented with 10% or 20% FBS for adherent and suspended lines, respectively. Parental cell lines were stably infected with a unique 24-nucleotide DNA barcode via lentiviral transduction and blasticidin selection. After selection, barcoded cell lines were expanded and subjected to quality control (Mycoplasma contamination test, an SNP test for confirming cell line identity, and barcode ID confirmation). Approved cell lines were then pooled (20–25 cell lines per pool) based on doubling time similarity and frozen in assay-ready vials.
RMC-6236 was added to 384-well plates at 8-point concentration with 3-fold dilutions in triplicate. These assay-ready plates were then seeded with the thawed cell line pools. Adherent cell pools were plated at 1,250 cells per well, whereas suspension and mixed adherent/suspension pools were plated at 2,000 cells per well. Treated cells were incubated for 5 days, and then lysed. Lysate plates were collapsed together prior to barcode amplification and detection.
Each cell line's unique barcode is located in the 3′UTR of the blasticidin-resistance gene and therefore is expressed as mRNA. Total mRNA was captured using magnetic particles that recognize polyA sequences. Captured mRNA was reverse-transcribed into cDNA and then the sequence containing the unique PRISM barcode was amplified using PCR. Finally, Luminex beads that recognize the specific barcode sequences in the cell set were hybridized to the PCR products and detected using a Luminex scanner which reports the signal as a median fluorescent intensity (MFI).
• Each detection well contained 10 control barcodes in increasing abundances as spike-in controls. For each plate, we first create a reference profile by calculating the median of the log2(MFI) values across negative control wells for each of these spiked-in barcodes. • For each well, a monotonic smooth p-spline was fitted to map the spike-in control levels to the reference profile. Next, we transform the log2(MFI) for each cell barcode using the fitted spline to allow well-to-well comparisons by correcting for amplification and detection artifacts. • Next, the separability between negative and positive control treatments was assessed. In particular, we calculated the error rate of the optimum simple threshold classifier between the control samples for each cell line and plate combination. The error rate is a measure of the overlap of the two control sets and was defined as error = (FP + FN)/n, where FP is false positives, FN is false negatives, and n is the total number of controls. A threshold was set between the distributions of positive and negative control log2(MFI) values (with everything below the threshold said to be positive and above said to be negative) such that this value is minimized. Additionally, we also calculated the dynamic range of each cell line. […] Additionally, any cell line that had less than 2 passing replicates was also omitted for the sake of reproducibility. Finally, we computed viability by normalizing with respect to the median negative control for each plate.
For every gene with nonsilent mutations in at least four cell lines, we compared the AUC values between cells with and without those mutations using a t test. This analysis was carried out for (i) the full data set; (ii) excluding cell lines with nonsilent KRAS mutations; and (iii) excluding cell lines that have either KRAS or NRAS nonsilent mutations.

Structure (SMILES): CCn1c(-c2cc(N3CCN(C)CC3)cnc2[C@H](C)OC)c2c3cc(ccc31)-c1csc(n1)C[C@H](NC(=O)[C@H]1C[C@@H]1C)C(=O)N1CCC[C@H](N1)C(=O)OCC(C)(C)C2 [RMC-6236]
- RMC-6236: RevMed PRISM: AUC (cell line KALS1_CENTRAL_NERVOUS_SYSTEM): 0.9052
- RMC-6236: RevMed PRISM: AUC (cell line KARPAS299_HAEMATOPOIETIC_AND_LYMPHOID_TISSUE): 0.5877
- RMC-6236: RevMed PRISM: AUC (cell line KARPAS620_HAEMATOPOIETIC_AND_LYMPHOID_TISSUE, KRAS p.G12D): 0.494
- RMC-6236: RevMed PRISM: AUC (cell line KARPAS1718_HAEMATOPOIETIC_AND_LYMPHOID_TISSUE): 1
- RMC-6236: RevMed PRISM: AUC (cell line KCL22_HAEMATOPOIETIC_AND_LYMPHOID_TISSUE): 0.7594
- RMC-6236: RevMed PRISM: AUC (cell line KD_SOFT_TISSUE): 1
- RMC-6236: RevMed PRISM: AUC (cell line KELLY_AUTONOMIC_GANGLIA): 0.9091
- RMC-6236: RevMed PRISM: AUC (cell line KKU055_BILIARY_TRACT): 1
- RMC-6236: RevMed PRISM: AUC (cell line KMH2_HAEMATOPOIETIC_AND_LYMPHOID_TISSUE): 0.9666
- RMC-6236: RevMed PRISM: AUC (cell line KMRC1_KIDNEY): 1
- RMC-6236: RevMed PRISM: AUC (cell line KMRC3_KIDNEY): 0.9256
- RMC-6236: RevMed PRISM: AUC (cell line KMS11_HAEMATOPOIETIC_AND_LYMPHOID_TISSUE): 0.7986
- RMC-6236: RevMed PRISM: AUC (cell line KMS27_HAEMATOPOIETIC_AND_LYMPHOID_TISSUE, NRAS p.Q61R): 0.4675
- RMC-6236: RevMed PRISM: AUC (cell line KNS42_CENTRAL_NERVOUS_SYSTEM): 0.8422
- RMC-6236: RevMed PRISM: AUC (cell line KNS81_CENTRAL_NERVOUS_SYSTEM): 0.628
- RMC-6236: RevMed PRISM: AUC (cell line KOPN8_HAEMATOPOIETIC_AND_LYMPHOID_TISSUE, KRAS p.G12D): 0.38
- RMC-6236: RevMed PRISM: AUC (cell line KPNYN_AUTONOMIC_GANGLIA): 0.8774
- RMC-6236: RevMed PRISM: AUC (cell line KYSE510_OESOPHAGUS): 0.6513
- RMC-6236: RevMed PRISM: AUC (cell line L82_HAEMATOPOIETIC_AND_LYMPHOID_TISSUE): 0.5122
- RMC-6236: RevMed PRISM: AUC (cell line L363_HAEMATOPOIETIC_AND_LYMPHOID_TISSUE, NRAS p.Q61H): 0.781
- RMC-6236: RevMed PRISM: AUC (cell line LN382_CENTRAL_NERVOUS_SYSTEM): 0.6625
- RMC-6236: RevMed PRISM: AUC (cell line LNZ308_CENTRAL_NERVOUS_SYSTEM): 0.6958
- RMC-6236: RevMed PRISM: AUC (cell line LS513_LARGE_INTESTINE, KRAS p.G12D): 0.3713
- RMC-6236: RevMed PRISM: AUC (cell line LXF289_LUNG): 0.7676
- RMC-6236: RevMed PRISM: AUC (cell line MB1_THYROID): 0.7794
- RMC-6236: RevMed PRISM: AUC (cell line MC116_HAEMATOPOIETIC_AND_LYMPHOID_TISSUE): 0.9435
- RMC-6236: RevMed PRISM: AUC (cell line MDAMB231_BREAST, KRAS p.G13D): 0.689
- RMC-6236: RevMed PRISM: AUC (cell line MDAMB453_BREAST): 0.7834
- RMC-6236: RevMed PRISM: AUC (cell line MELJUSO_SKIN, NRAS p.Q61L, HRAS p.G13D): 0.455
- RMC-6236: RevMed PRISM: AUC (cell line MESSA_SOFT_TISSUE): 0.8726
- RMC-6236: RevMed PRISM: AUC (cell line MFE280_ENDOMETRIUM): 0.7287
- RMC-6236: RevMed PRISM: AUC (cell line MHHNB11_AUTONOMIC_GANGLIA): 0.6251
- RMC-6236: RevMed PRISM: AUC (cell line MKN74_STOMACH): 0.8136
- RMC-6236: RevMed PRISM: AUC (cell line MM127_SKIN, NRAS p.G13R): 0.5705
- RMC-6236: RevMed PRISM: AUC (cell line MOLM13_HAEMATOPOIETIC_AND_LYMPHOID_TISSUE): 0.4387
- RMC-6236: RevMed PRISM: AUC (cell line MOLT3_HAEMATOPOIETIC_AND_LYMPHOID_TISSUE, NRAS p.Q61K): 0.9222
- RMC-6236: RevMed PRISM: AUC (cell line MOLT16_HAEMATOPOIETIC_AND_LYMPHOID_TISSUE): 0.6744
- RMC-6236: RevMed PRISM: AUC (cell line MONOMAC1_HAEMATOPOIETIC_AND_LYMPHOID_TISSUE): 0.7083
- RMC-6236: RevMed PRISM: AUC (cell line MON_SOFT_TISSUE): 0.4149
- RMC-6236: RevMed PRISM: AUC (cell line NALM6_HAEMATOPOIETIC_AND_LYMPHOID_TISSUE, NRAS p.A146T): 0.9095
- RMC-6236: RevMed PRISM: AUC (cell line NCIH226_LUNG): 0.6741
- RMC-6236: RevMed PRISM: AUC (cell line NCIH292_LUNG): 0.6545
- RMC-6236: RevMed PRISM: AUC (cell line NCIH446_LUNG): 1
- RMC-6236: RevMed PRISM: AUC (cell line NCIH508_LARGE_INTESTINE): 0.6279
- RMC-6236: RevMed PRISM: AUC (cell line NCIH522_LUNG): 0.7846
- RMC-6236: RevMed PRISM: AUC (cell line NCIH524_LUNG): 0.99
- RMC-6236: RevMed PRISM: AUC (cell line NCIH747_LARGE_INTESTINE, KRAS p.G13D): 0.4808
